Experimental data taken from the supplement of paper PMC6089552.
The campaign covered roughly 3,200 compounds. About 300 (9.4%) showed activity. Only a part is listed here, and it is no random draw.

Tested on: A673/TR/shEF
Assay: cell viability (LOESS-normalised, relative to median of negative controls) (log2 ratio); higher = more viable cells (less compound effect), active = hit call of the paper (over 3 MAD below the median)
Conditions: treatment time: 72 h
How it was run: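 Viability of A673/TR/shEF Ewing sarcoma cells was determined by CellTiter-Glo luminescence. The cells, at 1,500 per well in 384-well plates, were grown with or without doxycycline from 24 h before compound addition to switch on EWS-FLI1 shRNA knockdown, then exposed for three days to library compounds at two or more concentrations or to DMSO controls. Signals were LOESS-corrected plate by plate, normalised to the negative-control median and log2-transformed.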

[1] = 0.25 µM, library screen: screen1, EWS-FLI1 expression: high (no doxycycline)
[2] = 0.25 µM, library screen: screen1, EWS-FLI1 expression: low (doxycycline-induced shRNA knockdown)
[3] = 0.25 µM, library screen: screen2, EWS-FLI1 expression: high (no doxycycline)
[4] = 0.25 µM, library screen: screen2, EWS-FLI1 expression: low (doxycycline-induced shRNA knockdown)
[5] = 2.5 µM, library screen: screen1, EWS-FLI1 expression: high (no doxycycline)
[6] = 2.5 µM, library screen: screen1, EWS-FLI1 expression: low (doxycycline-induced shRNA knockdown)
[7] = 2.5 µM, library screen: screen2, EWS-FLI1 expression: high (no doxycycline)
[8] = 2.5 µM, library screen: screen2, EWS-FLI1 expression: low (doxycycline-induced shRNA knockdown)
[9] = 0.103 µM, library screen: screen3, EWS-FLI1 expression: high (no doxycycline)
[10] = 0.103 µM, library screen: screen3, EWS-FLI1 expression: low (doxycycline-induced shRNA knockdown)
[11] = 0.308 µM, library screen: screen3, EWS-FLI1 expression: high (no doxycycline)
[12] = 0.308 µM, library screen: screen3, EWS-FLI1 expression: low (doxycycline-induced shRNA knockdown)
[13] = 0.926 µM, library screen: screen3, EWS-FLI1 expression: high (no doxycycline)
[14] = 0.926 µM, library screen: screen3, EWS-FLI1 expression: low (doxycycline-induced shRNA knockdown)
[15] = 2.8 µM, library screen: screen3, EWS-FLI1 expression: high (no doxycycline)
[16] = 2.8 µM, library screen: screen3, EWS-FLI1 expression: low (doxycycline-induced shRNA knockdown)
[17] = 8.3 µM, library screen: screen3, EWS-FLI1 expression: high (no doxycycline)
[18] = 8.3 µM, library screen: screen3, EWS-FLI1 expression: low (doxycycline-induced shRNA knockdown)
[19] = 25 µM, library screen: screen3, EWS-FLI1 expression: high (no doxycycline)
[20] = 25 µM, library screen: screen3, EWS-FLI1 expression: low (doxycycline-induced shRNA knockdown)

Measured: cell viability (log2)

CC(COc1ccccc1)N(CCCl)Cc1ccccc1 (stereo unspecified)
inactive: [1] 0.0822 | [2] -0.0662 | [3] 0.0486 | [4] 0.125 | [5] 0.0683 | [6] -0.0725 | [7] 0.0773 | [8] 0.115

Nc1ncn([C@@H]2O[C@H](CO)[C@@H](O)[C@H]2O)c(=O)n1
active: 25 µM, library screen: screen2, EWS-FLI1 expression: high (no doxycycline) -0.117

CNc1ncnc2c1ncn2[C@H]1C[C@H](OP(=O)(O)O)[C@@H](COP(=O)(O)O)O1
inactive: [3] 0.145 | [4] 0.0774 | [7] 0.0134 | [8] 0.162

CCCCCCCCCCCCCCCCCCOP(=O)([O-])OC1CC[N+](C)(C)CC1
inactive: [9] -0.109 | [10] 0.00532 | [11] -0.0472 | [12] 0.0546 | [13] -0.0421 | [14] 0.00139 | [15] -0.0453 | [16] 0.00702 | [17] -0.104 | [18] -0.0117 | [19] -0.0902 | [20] -0.0236

CC(=O)c1ccc(S(=O)(=O)NC(=O)NC2CCCCC2)cc1
inactive: [3] 0.139 | [4] 0.0828 | [7] 0.0424 | [8] 0.105

CCSC(=N)N
inactive: [3] 0.16 | [4] 0.0173 | [7] 0.0858 | [8] 0.0148

O=C(N[C@@H](Cc1ccccc1)C(=O)CCl)OCc1ccccc1
inactive: [3] 0.163 | [4] 0.156 | [8] 0.0216
active: [7] -0.218

Cc1scc2c1N(C(=O)CN1CCN(C)CC1)c1ccccc1NC2=O
inactive: [3] 0.158 | [4] 0.101 | [7] 0.269 | [8] 0.0381

Cc1cc2c(cc1Cl)N(C(=O)Nc1ccc(Oc3cccnc3C)nc1)CC2
inactive: [3] 0.241 | [4] 0.0886 | [7] 0.111 | [8] 0.164

c1ccc(C2CN3CCSC3=N2)cc1 (stereo unspecified)
inactive: 0.025 µM, library screen: screen1, EWS-FLI1 expression: high (no doxycycline) 0.0711 | 0.025 µM, library screen: screen1, EWS-FLI1 expression: low (doxycycline-induced shRNA knockdown) 0.0575 | [1] 0.0459 | [2] 0.00911 | [3] 0.102 | [4] 0.0185 | [6] 0.107 | [7] 0.166 | [8] 0.00181 | 25 µM, library screen: screen1, EWS-FLI1 expression: low (doxycycline-induced shRNA knockdown) 0.0697
active: [5] -0.215 | 25 µM, library screen: screen1, EWS-FLI1 expression: high (no doxycycline) -0.261

CC(COc1ccc(/C=C/c2ccccc2)cc1)[N+](C)(C)C (stereo unspecified)
inactive: [3] 0.094 | [4] 0.0771 | [7] 0.0835 | [8] 0.0618

[O-]n1ccccc1=S.[O-]n1ccccc1=S.[Zn+2]
active: [5] -0.205
inactive: [1] 0.17 | [2] 0.0708 | [6] 0.0604

Cc1c2oc3c(C)ccc(C(=O)NC4C(=O)NC(C(C)C)C(=O)N5CCCC5C(=O)N(C)CC(=O)N(C)C(C(C)C)C(=O)OC4C)c3nc-2c(C(=O)NC2C(=O)NC(C(C)C)C(=O)N3CCCC3C(=O)N(C)CC(=O)N(C)C(C(C)C)C(=O)OC2C)c(N)c1=O (stereo unspecified)
active: [1] -4.25 | [2] -4.25 | [5] -4.23 | [6] -4.26

COc1cc2cc3c4cc(OC)c(OC)cc4cc[n+]3c(C)c2cc1OC
inactive: [1] 0.0489 | [2] -0.0198 | [5] 0.106 | [6] 0.097

Cc1ccc(Cl)c(Nc2ccccc2C(=O)O)c1Cl
inactive: [1] 0.134 | [2] 0.00203 | [3] 0.0256 | [4] 0.0859 | [5] 0.175 | [6] 0.051 | [7] 0.105 | [8] 0.198

O=C(NCCO[N+](=O)[O-])c1cccnc1
inactive: [9] -0.00596 | [10] 0.0478 | [11] 0.0526 | [12] -0.0187 | [13] 0.00281 | [14] 0.0527 | [15] 0.0528 | [16] 0.0439 | [17] 0.0599 | [18] 0.0714 | [19] 0.00797 | [20] 0.00363

CN(C)CCOc1ccc(/C(=C(/CCCl)c2ccccc2)c2ccccc2)cc1
inactive: [9] 0.104 | [10] 0.00126 | [11] 0.155 | [12] 0.127 | [13] 0.118 | [14] 0.144 | [15] 0.15 | [16] 0.15 | [17] 0.114 | [18] 0.116 | [19] 0.0665 | [20] 0.0889

CC(C(=O)O)c1ccc(N2Cc3ccccc3C2=O)cc1 (stereo unspecified)
inactive: [1] 0.0818 | [2] -0.025 | [5] 0.167 | [6] 0.0502

Oc1ccc(OCc2ccccc2)cc1
active: [15] -0.186 | [19] -0.212
inactive: [9] 0.123 | [10] -0.0268 | [11] 0.0306 | [12] 0.0601 | [13] 0.0336 | [14] -0.0221 | [16] 0.0872 | [17] -0.00746 | [18] 0.0842 | [20] 0.0776
